Some of the results follow. At the low end of the ranking the order means little.

The assay concerns MYC (p64) + MAX (p21), in MYC:MAX. The experiment in a line: protein-binding microarray (anti-MAX antibody). The conditions noted are these: PBM: 15 mM Tris-HCl pH 7.5, 100 mM KCl, 0.075% NP40, 7.5 mM beta-mercaptoethanol, 375 ng/ul BSA, 8 ng/ul poly(dA-dT):(dA-dT), 550 ng complex, 60 min, room …; high values mean tight binding; double strand, one strand shown; sequences stand for … in CCGGC…TTAATAGCTAAGATTACTATATCGACG
For the sequence AGACAAGTGCTA, the binding signal (log2 normalized fluorescence) was 0.353.

For TGACACGCGGTG, the binding signal (log2 normalized fluorescence) is 0.585.

Turning to TGATTGGGGGTA, the binding signal (log2 normalized fluorescence) came to 0.502.

On to TGAAGTGAAGTA, for which the binding signal (log2 normalized fluorescence) was -0.142.

In the case of TGAATAACTGTA, the binding signal (log2 normalized fluorescence) was -0.0712.

As to TGAGCCGTTGTA, the binding signal (log2 normalized fluorescence) was -0.0374.

In the case of TGAGGTCATGTA, the binding signal (log2 normalized fluorescence) worked out at 0.00694.

With TGAATGCAGGTA, the binding signal (log2 normalized fluorescence) worked out at 0.138.

Regarding TGAGCTTGCGTA, the binding signal (log2 normalized fluorescence) is 0.165.

Turning to TGAATACTGGTA, the binding signal (log2 normalized fluorescence) was 0.0621.

As to TGATACCCAGTA, the binding signal (log2 normalized fluorescence) was determined as 0.0519.

As to TGCCAAGTGGTG, the binding signal (log2 normalized fluorescence) stood at 0.205.

For the sequence CGGCACGTGGTA, the binding signal (log2 normalized fluorescence) is 0.723.

As to TGACGCGTCGTA, the binding signal (log2 normalized fluorescence) came to 0.46.

As to TGAAATGTGATA, the binding signal (log2 normalized fluorescence) stood at 0.419.

On to TGAGTTGTGGTA, for which the binding signal (log2 normalized fluorescence) amounted to 0.0821.

On to TGAGACGTAGTA, for which the binding signal (log2 normalized fluorescence) is -0.176.

On to TGATAGTGGGTA, for which the binding signal (log2 normalized fluorescence) is -0.0434.

Turning to TGATACGAGGTA, the binding signal (log2 normalized fluorescence) was 0.0752.

On to TGATCGGTCGTA, for which the binding signal (log2 normalized fluorescence) is -0.276.

In the case of TGATCGGGGGTA, the binding signal (log2 normalized fluorescence) came out at 0.737.

With CAACACGTGGTA, the binding signal (log2 normalized fluorescence) came out at 0.937.

In the case of TGACACGTACCA, the binding signal (log2 normalized fluorescence) was determined as 0.476.

With TGACACGCGAGA, the binding signal (log2 normalized fluorescence) is 0.438.

With TGAATTTCCGTA, the binding signal (log2 normalized fluorescence) was -0.0611.

Take CGACACGTGGTA: the binding signal (log2 normalized fluorescence) was found to be 1.07.

For the sequence TGAGGCTCCGTA, the binding signal (log2 normalized fluorescence) worked out at 0.0148.

With TAACACGTGATA, the binding signal (log2 normalized fluorescence) was determined as 0.646.

TGATTCCTTGTA: the binding signal (log2 normalized fluorescence) turned out to be 0.02.

GGCCACTTGGTA: the binding signal (log2 normalized fluorescence) turned out to be 0.115.

Regarding TGACACATGGTT, the binding signal (log2 normalized fluorescence) was found to be 0.817.

For TGATACCCTGTA, the binding signal (log2 normalized fluorescence) is 0.086.

As for TGAGAGAGTGTA, the binding signal (log2 normalized fluorescence) was 0.119.

For GAAGCATTGCAT, the binding signal (log2 normalized fluorescence) worked out at 0.288.

TGATCAAAGGTA: the binding signal (log2 normalized fluorescence) is -0.134.

As for TGACATGGGGTA, the binding signal (log2 normalized fluorescence) amounted to 0.427.

As for CGACACTTGGTG, the binding signal (log2 normalized fluorescence) amounted to 0.249.

On to AGACATGTGGTG, for which the binding signal (log2 normalized fluorescence) was found to be 0.734.

With TGATACAACGTA, the binding signal (log2 normalized fluorescence) is 0.133.

Consider TGAAGCGGTGTA, for which the binding signal (log2 normalized fluorescence) is 0.0582.

Turning to TGAGACGGAGTA, the binding signal (log2 normalized fluorescence) is -0.0188.

As to TGAGAAGCGGTA, the binding signal (log2 normalized fluorescence) is -0.0504.

Take TGACTAGGGGTA: the binding signal (log2 normalized fluorescence) was 0.208.

Take TGAATGCCTGTA: the binding signal (log2 normalized fluorescence) came to 0.159.

On to TGAGCATGCGTA, for which the binding signal (log2 normalized fluorescence) stood at 0.461.

With TGACGCGCCGTA, the binding signal (log2 normalized fluorescence) was 0.261.

Regarding TGACAGTTCGTA, the binding signal (log2 normalized fluorescence) is 0.106.

In the case of TGACTTAGGGTA, the binding signal (log2 normalized fluorescence) stood at 0.00404.

For the sequence TGACACCGTGTA, the binding signal (log2 normalized fluorescence) was 0.512.

With TGAACTCACGTA, the binding signal (log2 normalized fluorescence) is 0.179.

In the case of TGAAGTTCAGTA, the binding signal (log2 normalized fluorescence) was found to be 0.0781.

As to TGATTTCCGGTA, the binding signal (log2 normalized fluorescence) is -0.167.

Consider TGACGAATCGTA, for which the binding signal (log2 normalized fluorescence) was determined as 0.0673.

As to TGATCAACTGTA, the binding signal (log2 normalized fluorescence) came to 0.137.

TGAACTTAAGTA: the binding signal (log2 normalized fluorescence) was 0.0282.

With TGATACACAGTA, the binding signal (log2 normalized fluorescence) was found to be 0.0561.

In the case of TGACCTTTAGTA, the binding signal (log2 normalized fluorescence) amounted to 0.0418.

As for TGATGTCGGGTA, the binding signal (log2 normalized fluorescence) was found to be 0.0547.

For TGATCTGGTGTA, the binding signal (log2 normalized fluorescence) was -0.0888.

As for TGACACGGGGTA, the binding signal (log2 normalized fluorescence) was determined as 0.48.

As to TGAGGTAGCGTA, the binding signal (log2 normalized fluorescence) was -0.0605.

TGAACAGTTGTA: the binding signal (log2 normalized fluorescence) was -0.0199.

For TGAATCGACGTA, the binding signal (log2 normalized fluorescence) was determined as 0.0788.

As for TCACCGGTGGTA, the binding signal (log2 normalized fluorescence) stood at 0.124.

For the sequence TGAAGTTGCGTA, the binding signal (log2 normalized fluorescence) was -0.0361.

TGACACGTGTGA: the binding signal (log2 normalized fluorescence) was 0.872.

As for TGATGTCAAGTA, the binding signal (log2 normalized fluorescence) was found to be 0.06.

As to TGAGGCTAGGTA, the binding signal (log2 normalized fluorescence) was -0.143.

On to TGACGTGACGTA, for which the binding signal (log2 normalized fluorescence) is -0.0134.

Consider TGATGGTGGGTA, for which the binding signal (log2 normalized fluorescence) came to 0.165.

As to TGAAACGGGGTT, the binding signal (log2 normalized fluorescence) is 0.189.

In the case of TGGCCCGTGGTA, the binding signal (log2 normalized fluorescence) was found to be 0.26.

For the sequence TGAAGATATGTA, the binding signal (log2 normalized fluorescence) was -0.115.

TGATGAGCCGTA: the binding signal (log2 normalized fluorescence) is -0.152.

Regarding TGAGTACGCGTA, the binding signal (log2 normalized fluorescence) amounted to 0.244.

For TGACTCCGAGTA, the binding signal (log2 normalized fluorescence) is -0.169.

With TGACGTCAGGTA, the binding signal (log2 normalized fluorescence) came to 0.293.

Turning to TGAGCGTCAGTA, the binding signal (log2 normalized fluorescence) was 0.123.

Take TGATCATGAGTA: the binding signal (log2 normalized fluorescence) was 0.18.

Turning to TGACCGGTTGTA, the binding signal (log2 normalized fluorescence) was -0.00848.

Regarding TGAGTACCCGTA, the binding signal (log2 normalized fluorescence) was -0.0297.

For TGATTGAGGGTA, the binding signal (log2 normalized fluorescence) is -0.242.

For TGATAAGTAGTA, the binding signal (log2 normalized fluorescence) was -0.156.

On to TGAGGTAGTGTA, for which the binding signal (log2 normalized fluorescence) was -0.00485.

As for TGATTCTCAGTA, the binding signal (log2 normalized fluorescence) is -0.114.

As for TGAGCAAATGTA, the binding signal (log2 normalized fluorescence) was 0.148.

On to TGACCGCACGTA, for which the binding signal (log2 normalized fluorescence) was found to be 0.325.

For TGAATAGGAGTA, the binding signal (log2 normalized fluorescence) was -0.0183.

Take TGAGAATATGTA: the binding signal (log2 normalized fluorescence) was -0.0932.

With TGAAAGTAGGTA, the binding signal (log2 normalized fluorescence) was -0.0375.

With TGAACTCGCGTA, the binding signal (log2 normalized fluorescence) came to 0.276.

For TGAAACTAGGTA, the binding signal (log2 normalized fluorescence) was 0.0149.

Consider TGAGACTCAGTA, for which the binding signal (log2 normalized fluorescence) was -0.0192.

On to TGACGTCGAGTA, for which the binding signal (log2 normalized fluorescence) came out at 0.0982.

As to TGAGAGACTGTA, the binding signal (log2 normalized fluorescence) came out at 0.0278.

TGAGTGCCAGTA: the binding signal (log2 normalized fluorescence) was found to be 0.0258.

TGATGTCTTGTA: the binding signal (log2 normalized fluorescence) was determined as 0.0707.

As to TGAGCAGGGGTA, the binding signal (log2 normalized fluorescence) came to 0.291.

Consider TAATACGTGGTG, for which the binding signal (log2 normalized fluorescence) stood at 0.417.

As to TGACGTGGGGTA, the binding signal (log2 normalized fluorescence) is 0.437.

For TGAAAATAAGTA, the binding signal (log2 normalized fluorescence) was found to be 0.0845.

For the sequence TGACGGCGCGTA, the binding signal (log2 normalized fluorescence) worked out at 0.31.

TTCTACGAAGGA: the binding signal (log2 normalized fluorescence) is -0.0193.

Turning to TGAATTTTGGTA, the binding signal (log2 normalized fluorescence) was -0.174.

In the case of TGACTGCTCGTA, the binding signal (log2 normalized fluorescence) was 0.235.

On to TGACACGTCGTT, for which the binding signal (log2 normalized fluorescence) is 0.391.

TGACACAGGGTA: the binding signal (log2 normalized fluorescence) was 0.328.

For TGATTTCTTGTA, the binding signal (log2 normalized fluorescence) was -0.0269.

As for TGAGGTGCAGTA, the binding signal (log2 normalized fluorescence) was -0.0297.

Consider TGATCACTTGTA, for which the binding signal (log2 normalized fluorescence) was found to be 0.124.

Consider TGAAGTCAGGTA, for which the binding signal (log2 normalized fluorescence) came to 0.179.

As to TGAGGGCAAGTA, the binding signal (log2 normalized fluorescence) was 0.0193.

Consider TGGCACGGGGTA, for which the binding signal (log2 normalized fluorescence) stood at 0.559.

TGAAGTTTAGTA: the binding signal (log2 normalized fluorescence) is -0.00682.

Take TGATGGTTAGTA: the binding signal (log2 normalized fluorescence) amounted to 0.0867.

For the sequence TGACACACAGTA, the binding signal (log2 normalized fluorescence) worked out at 0.471.

As for TGACCAAAGGTA, the binding signal (log2 normalized fluorescence) stood at 0.0357.

For TGAACGCTCGTA, the binding signal (log2 normalized fluorescence) came out at 0.275.

Regarding TGAGCGGGTGTA, the binding signal (log2 normalized fluorescence) was 0.195.

As for TGAGCTTCCGTA, the binding signal (log2 normalized fluorescence) was 0.0481.

For the sequence TGACAATAAGTA, the binding signal (log2 normalized fluorescence) was determined as 0.0834.

Take AGACACGCGGTC: the binding signal (log2 normalized fluorescence) came to 0.8.

Consider TGATTAACTGTA, for which the binding signal (log2 normalized fluorescence) came to 0.0149.

For TGAGCTTACGTA, the binding signal (log2 normalized fluorescence) was -0.218.

As for TGAAGGTTAGTA, the binding signal (log2 normalized fluorescence) was determined as 0.0121.

TGAAGCGCCGTA: the binding signal (log2 normalized fluorescence) came to 0.0437.

As for TGAATGGATGTA, the binding signal (log2 normalized fluorescence) turned out to be 0.315.

Consider TGACAGATGTTA, for which the binding signal (log2 normalized fluorescence) came to 0.306.

Turning to TGAACAGGTGTA, the binding signal (log2 normalized fluorescence) turned out to be 0.412.

Consider TGAAATGGAGTA, for which the binding signal (log2 normalized fluorescence) is -0.0855.

Take TGAGACTAAGTA: the binding signal (log2 normalized fluorescence) was -0.139.

Regarding TGACGGACCGTA, the binding signal (log2 normalized fluorescence) stood at 0.163.

Take TGACAACTAGTA: the binding signal (log2 normalized fluorescence) is 0.025.

Take TGATGCAAAGTA: the binding signal (log2 normalized fluorescence) worked out at 0.107.

For the sequence TGAGAGAAAGTA, the binding signal (log2 normalized fluorescence) is -0.0754.

Consider TGAAACATGGTA, for which the binding signal (log2 normalized fluorescence) was determined as 0.426.

Consider TGAGCCATGGTA, for which the binding signal (log2 normalized fluorescence) worked out at 0.0564.
